Laboratory results as given in article PMC6212790.
Some of the results follow. At the low end of the ranking, values are background and their order means little.

Each sequence was assayed against T1, GST-Rok-C97-191 (UniProt O34857) (assay: protein binding microarray). Conditions: Rok is a gene silencer of Bacillus subtilis; high values mean tight binding; most listed sequences are background and not binding sites; double strand, one strand shown.
T1 sequence: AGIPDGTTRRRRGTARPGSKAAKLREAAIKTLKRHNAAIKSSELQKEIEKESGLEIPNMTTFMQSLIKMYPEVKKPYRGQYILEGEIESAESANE
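Also: rank score from −0.5 (least bound) to 0.5 (best bound).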

Sequence | binding signal [E-score]
ATCTTGTG | -0.0744
GACTGATC | -0.282
CACGTAAA | 0.0505
CTATCCCA | 0.0785
ATGTAAAA | 0.351
CGTGATAG | 0.0722
ACCAGCTA | 0.206
TCTGTAAA | 0.027
GAATCACC | -0.0218
CACACAAG | -0.0988
ACGTCCTA | 0.0596
AGGATAAT | 0.2
AAAGTCGT | 0.125
CGGCTAAC | 0.00729
GGCGAGTA | 0.0244
GATGCAGC | -0.0978
ACAAATCC | -0.129
AAAGTTAG | 0.156
CCACCGCA | -0.145
CCACTGGA | -0.202
ATGACACG | -0.103
TCCCTGAA | -0.252
AGCTTTTC | 0.0739
TAGAACGA | 0.058
GTTGTTGA | 0.0546

Sequence | binding signal [E-score]
CGTTTACC | -0.0458
GACAACAA | -0.114
CCACAAAC | 0.0675
GCATACCA | 0.132
ATCCAAAG | -0.0572
CTTCGCGA | -0.246
ACCAAGGG | -0.244
GCACCGAA | -0.2
ATGGACAC | 0.0474
GATATTCC | 0.151
GCTTGCCA | -0.131
GCAGGTCA | -0.13
GTCGTCGA | 0.00321
TACTACTA | 0.44
CCGCGCGA | -0.225
GTTTGGCA | 0.0167
CCTGAAGC | -0.0171
AAAGAGCT | -0.184
CTAAACTC | 0.0554
CACCCAGA | -0.284
CAAACACA | 0.0475
AATATAAA | 0.361
TAAGCTCA | -0.0452
GATAAGAA | 0.0314
AGTGTCGC | -0.105

Sequence | binding signal [E-score]
CGTCTAAC | -0.154
AATGGACA | -0.114
ACGCTTCA | -0.287
ACATCCAC | 0.126
GCATTGGA | -0.0963
AGAATTGG | 0.176
CGAGATAC | 0.1
CGGCTCGC | -0.204
GCGCCGAC | -0.109
CGTCACCA | -0.215
AGGCGGGC | -0.244
AACTAGTA | 0.47
CAAACCCA | 0.0142
ACCCTACT | 0.127
ACACTTCC | 0.0399
CACAGTCC | -0.2
CGGGTTTA | -0.0403
AAAGCGAG | -0.169
GCGGTACA | 0.119
AATCGAAC | 0.139
CATTGGAA | -0.0107
ATCGCCTG | -0.133
GCGTTCTA | 0.179
TGGACCAA | -0.381
CACATTCC | -0.139

Sequence | binding signal [E-score]
TCCCAACA | -0.00841
AGCCGGCG | -0.258
AGACAAGA | -0.0966
GCAGAAAA | 0.0646
AAAACGTG | -0.0318
CCTCGGTC | -0.348
CACCGCGA | 0.00941
TAGAAAGA | 0.154
CCACGGCC | -0.233
CTCTAGAG | 0.0157
ACTCCTCA | -0.236
GGATGACA | -0.12
ACAATGAG | 0.0315
GCTCTTGA | -0.133
TCAGGAGA | -0.166
ATACCCCA | -0.0857
GACCGCGA | -0.229
CCTATTAC | 0.247
GATGTGAA | 0.0761
CACTTCTG | 0.108
CCATTGTC | -0.00621
CTCTTCCC | -0.187
ATGTTGCA | -0.0083
ACTGCATC | -0.00161
CTGATTGC | -0.0195

Sequence | binding signal [E-score]
AGCTAAAC | 0.154
ACATCGAA | 0.0242
CTCCATGA | -0.177
GGAGTTTA | 0.0723
ACGGTTTC | -0.183
ACTTTCTC | 0.0481
CACCGGCA | -0.173
ACTGATTG | 0.0946
TAGACCAA | -0.304
CAGAGTAC | -0.0856
TTTCGAAA | -0.0872
CGGCTACC | -0.19
CAGCTTAC | -0.168
GCTACGAC | 0.041
CTGAATGC | -0.197
CCAAGGTC | -0.214
CCATGGGG | -0.385
CGCCACCC | -0.0952
CCCGTTTC | 0.128
CCGAAGGC | -0.155
GACGGGTA | -0.0442
CGCGTCCA | -0.247
GACAGCAA | -0.158
ATACTACG | 0.273
GGACGGAA | -0.113

Sequence | binding signal [E-score]
CCGGAAGA | -0.255
AATGCCGG | -0.0678
AAGACCCT | -0.29
AACAGTCC | -0.298
AGAAGGTA | 0.116
ACCCATTA | 0.151
AAGAACCT | 0.0778
AGATATTC | 0.231
GAATAGAA | 0.209
CGTTTCGA | -0.111
CTCTAGGA | -0.0777
AGACGAAA | 0.153
ATTGCAAC | 0.114
AAAGGGGG | -0.158
CTTGGTGC | -0.0814
AACTCCCT | 0.0599
GGTTCAGA | -0.0943
GCGACACC | -0.241
AGGATTGA | 0.0744
AACATTAT | 0.12
ACGGTTAC | 0.0305
CTCCAGTC | -0.194
GTGAGATA | 0.0844
CCGTGCAA | -0.0545
CTTATCCA | 0.051

Sequence | binding signal [E-score]
GAATCAAC | -0.168
GCGCACAA | 0.101
AGAAGAAG | -0.0525
ATTCTATC | 0.414
AGTAGACA | 0.0265
AGCAATCG | 0.111
GAACCGTA | 0.039
CCCGTTGA | -0.0711
CCTACTGA | 0.0236
ATATATAG | 0.379
GTTTCCTA | 0.107
CCTGGACG | -0.285
AATGGTCA | 0.122
AATGTGGC | -0.231
ACGCCTAT | -0.000862
CGGTCCCA | -0.0915
CACAAAGA | -0.0718
AAGGTTAC | -0.0134
CTGGTTGC | -0.26
CATTAGAG | 0.105
ACGGGCGA | 0.0647
ACCAGTTG | 0.0756
